Changes are numbered by the printed parent chain. Names may count otherwise. These are yes or no findings as the source states them, for the method shown. For part of these data: In cells and extracts the contact can be indirect. Some results given as binding are weak or reduced against the parent protein; the word gives no strength. Tags and fused reporters may be left off the sequences shown.
B1: Kic1 fused to the GAL4 activation domain (wild type) (enzyme, UniProt P38692 1-1080)
chain: MTTKPQNSKQGLAEGEMDVSSLFKRTEVIGRGKFGVVYKGYNVKTGRVYAIKVLNLDSDSDEVEDVQREIQFLASLKQISNITRYYGSYLKDTSLWIIMEHCAGGSLRSLLRPGKIDEKYIGVIMRELLVALKCIHKDNVIHRDIKAANVLITNEGNVKLCDFGVAAQVNQTSLRRQTMAGTPYWMAPEVIMEGVYYDTKVDIWSLGITTYEIATGNPPYCDVEALRAMQLIIKSKPPRLEDRSYSTSLKEFIALCLDEDPKERLSADDLLKSKFIRAHKATPTSILKELISRYLLFRDKNKNKYKIEGSIPENEPSKPSEAPKPSQNGGGDEAQKSIASNDNEIKRVNEGDVEMKWDFDSLSSSDYIIENNINLDALAEDNNEWATAQHDLFNYAYPDEDSYYFDPTSHNTRPFVYQGTTIGKGYPGTIAQNSTLNAPVTNNYTNSKYPSKMVAGTTNTSGTHTAGPMTSSKRLESKAPKQLLELFEDNEIITAENDVNTEAPKISKSISSLNAGNSSRDDFIPSISNEVNGNINNNKMRPHLPPLSSGNNYYSQSTPALPLLQTKFNKTSKGPPTSGLTTAPTSIEIEIPEELPNSALPTPASADPVLIPSTKARSSTVTAGTPSSSSSIQYKSPSNVPRRLTVSNNRPEHCPSTITNQKLGSAVASNSGISSTPNNSNNYNNNTDSENSRGSSGSNTANSTQMGITNPGNVTKLSTHKASSPSRPLFGVGTSPNRKPAGSPTQNIGHNSTHTNLAPPPTMKPMANSKDNKDILLQPLNSIPSSSTLNTISGNSSNNLTSSNYFSNEKEGSRVNGDFKRNNPNLKLQMPLPTPVVRNKLLDPNTATSQNNNGMPGSAGISTNENINQFGFNTSSASNIPVSMTPISEKHIDFGGKIKRSQSISNRKNSSASEHPLNILGSSVSGNVSGIGNNNVGSNNNSGPNNSVPLSANTGNTTIKANSTTIATSSSAAASTTAPISQQTIPSGTQFNHILSSAATAANSVNSLGFGMCPPPQSLQMEMFLDLESFLPGKQRRVDRKPQVLKELENLLQMFEEGLPCIEHALKEQLISTPIKDNEH
B2: Kic1-3HA (wild type) (enzyme, UniProt P38692 1-1080)
chain: B1 chain
B3: GST-Mob2 (full length) (protein, UniProt P43563 1-287)
chain: MSFFNFKAFGRNSKKNKNQPLNVAQPPAMNTIYSSPHSSNSRLSLRNKHHSPKRHSQTSFPAQKSTPQSQQLTSTTPQSQQQEASERSESQQIMFLSEPFVRTALVKGSFKTIVQLPKYVDLGEWIALNVFEFFTNLNQFYGVVAEYVTPDAYPTMNAGPHTDYLWLDANNRQVSLPASQYIDLALTWINNKVNDKNLFPTKNGLPFPQQFSRDVQRIMVQMFRIFAHIYHHHFDKIVHLSLEAHWNSFFSHFISFAKEFKIIDRKEMAPLLPLIESFEKQGKIIYN
B4: Kic1 D57A (site A mutant) fused to the GAL4 activation domain (enzyme, UniProt P38692 1-1080)
chain: B1 chain with D57A
B5: HA-tagged Kic1 WDF mutant (kic1-AAA) (enzyme, UniProt P38692 1-1080)
chain: B1 chain with W357A, D358A, F359A

Sequences of proteins named here, by UniProt entry; tags and fusion partners are left off. A change or cut given only in a name is not applied to a line headed by its entry. A line that says so, or that is headed by a name, gives the form on record, which may keep a tag or linker.
His6-Cbk1(251-756, D475A) (P53894, form named): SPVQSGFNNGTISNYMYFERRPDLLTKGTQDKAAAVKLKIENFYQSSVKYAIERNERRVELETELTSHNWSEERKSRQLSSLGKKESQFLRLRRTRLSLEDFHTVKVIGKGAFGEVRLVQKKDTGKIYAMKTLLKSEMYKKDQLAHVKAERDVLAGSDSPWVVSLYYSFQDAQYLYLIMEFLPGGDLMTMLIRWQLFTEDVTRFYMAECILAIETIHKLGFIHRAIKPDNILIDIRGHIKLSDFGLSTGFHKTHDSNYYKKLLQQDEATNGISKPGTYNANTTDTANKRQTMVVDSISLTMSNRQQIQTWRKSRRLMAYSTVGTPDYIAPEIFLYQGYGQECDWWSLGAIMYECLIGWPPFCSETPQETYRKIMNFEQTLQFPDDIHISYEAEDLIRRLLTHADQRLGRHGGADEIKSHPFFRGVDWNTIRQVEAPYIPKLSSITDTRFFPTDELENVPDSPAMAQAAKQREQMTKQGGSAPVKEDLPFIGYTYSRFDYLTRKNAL

Assays:
[1] = target: T1, Hym1 fused to the GAL4 DNA-binding domain (S. cerevisiae) (UniProt P32464); test: two-hybrid; yeast two-hybrid; Kic1 alleles in pGAD-C1 (GAL4 activation domain), Hym1 in pGBD-C1 (GAL4 DNA-binding domain), coexpressed; prey or bait alone as negative controls
T1 sequence: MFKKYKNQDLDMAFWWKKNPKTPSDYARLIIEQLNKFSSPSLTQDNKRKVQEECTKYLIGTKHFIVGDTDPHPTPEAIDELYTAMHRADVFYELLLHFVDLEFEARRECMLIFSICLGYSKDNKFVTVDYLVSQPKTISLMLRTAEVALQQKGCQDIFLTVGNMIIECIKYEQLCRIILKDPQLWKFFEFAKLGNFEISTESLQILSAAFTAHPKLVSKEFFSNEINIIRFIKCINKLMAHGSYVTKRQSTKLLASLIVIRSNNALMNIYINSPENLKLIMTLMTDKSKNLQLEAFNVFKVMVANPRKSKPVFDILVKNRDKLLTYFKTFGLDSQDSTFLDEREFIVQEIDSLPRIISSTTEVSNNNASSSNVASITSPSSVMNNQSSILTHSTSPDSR

[2] = target: T2, Hym1-13myc (S. cerevisiae) (UniProt P32464); test: co-IP; lysates of cells expressing either Kic1-3HA or Hym1-13myc prepared separately, then mixed; Hym1-myc immunoprecipitated, Kic1-HA detected; also with lysates taken at 10 min intervals after release from GAL-CDC20 arrest
T2 sequence: T1 sequence

[3] = target: T2, Hym1-13myc (S. cerevisiae); test: co-IP; yeast cell lysates (bead beating) of strains with both tagged proteins; Hym1-myc immunoprecipitated with anti-c-Myc 9E10 on Dynabeads Protein G, Kic1-HA detected by anti-HA blot; also at 10 min intervals after release from GAL-CDC20 arrest
[4] = target: His6-Cbk1(251-756, D475A) (S. cerevisiae) (UniProt P53894); test: tandem affinity co-purification; His6-Cbk1(251-756, D475A) and GST-Mob2 coexpressed in E. coli from a bicistronic system; Ni-NTA resin followed by glutathione-Sepharose 4B

Row | Binder | binding [1] | binding [3] | further results
1 | B1 | binds | – | –
2 | B2 | – | binds | binding [2]: binds
3 | B3 | – | – | binding [4]: binds
4 | B4 | no binding | – | –
5 | B5 | – | no binding | –

Reference: PMC3804511
